# Among all 310,000 compounds or so, about 14,000 (4.5%) showed an effect of 50% or more. Effects have a minus sign here. This is one part of the list. Where a SMILES comes first, the peptide text is derived from it.
# Molecular target: human ether-à-go-go-related gene (hERG) potassium channel (human, UniProt Q12809)
# Experiment: primary screen, population patch clamp on CHO cells stably expressing hERG
# 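Also: peak tail current of the secondary pulse compared with the same well before compound.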
# Sequence of human ether-à-go-go-related gene (hERG) potassium channel (Q12809 whole entry, looked up): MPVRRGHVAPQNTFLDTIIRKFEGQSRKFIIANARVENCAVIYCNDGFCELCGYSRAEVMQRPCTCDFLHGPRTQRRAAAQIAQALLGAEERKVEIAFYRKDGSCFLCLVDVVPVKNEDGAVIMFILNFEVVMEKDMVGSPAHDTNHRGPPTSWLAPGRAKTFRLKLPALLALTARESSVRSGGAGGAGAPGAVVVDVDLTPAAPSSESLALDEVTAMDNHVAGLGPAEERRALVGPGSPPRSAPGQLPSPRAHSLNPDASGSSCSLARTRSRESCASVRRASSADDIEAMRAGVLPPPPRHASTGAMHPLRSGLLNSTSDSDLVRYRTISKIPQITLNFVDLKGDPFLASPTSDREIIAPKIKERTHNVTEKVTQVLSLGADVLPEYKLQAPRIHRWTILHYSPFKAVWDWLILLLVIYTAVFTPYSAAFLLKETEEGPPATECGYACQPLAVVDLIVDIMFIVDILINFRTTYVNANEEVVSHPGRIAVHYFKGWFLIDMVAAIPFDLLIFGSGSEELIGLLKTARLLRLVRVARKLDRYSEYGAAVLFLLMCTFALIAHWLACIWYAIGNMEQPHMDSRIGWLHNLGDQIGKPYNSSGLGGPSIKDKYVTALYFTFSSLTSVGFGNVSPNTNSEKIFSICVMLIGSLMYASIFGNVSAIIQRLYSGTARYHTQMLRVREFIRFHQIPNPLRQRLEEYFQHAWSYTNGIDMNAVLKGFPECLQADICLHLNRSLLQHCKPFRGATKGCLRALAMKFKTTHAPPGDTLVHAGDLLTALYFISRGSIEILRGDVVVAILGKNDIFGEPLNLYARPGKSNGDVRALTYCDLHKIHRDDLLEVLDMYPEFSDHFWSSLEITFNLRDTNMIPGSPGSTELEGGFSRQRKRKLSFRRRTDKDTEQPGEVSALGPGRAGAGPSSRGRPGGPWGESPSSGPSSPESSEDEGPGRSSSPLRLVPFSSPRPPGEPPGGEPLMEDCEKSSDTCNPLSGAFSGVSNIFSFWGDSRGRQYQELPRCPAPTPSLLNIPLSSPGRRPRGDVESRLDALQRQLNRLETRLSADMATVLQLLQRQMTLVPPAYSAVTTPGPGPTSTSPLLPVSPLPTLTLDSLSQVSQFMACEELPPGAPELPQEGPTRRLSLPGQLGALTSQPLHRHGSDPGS
row,SMILES,"hERG current change (%, negative = inhibition) at 10uM [%]"
1,COC(=O)/C=C1/SC(=NC(=O)c2ccccc2)NC1=O,-13.9
2,CCN[C@H]1CN(CCCOC)S(=O)(=O)c2sc(S(N)(=O)=O)cc21,2.51
3,CCOC(=O)c1cc2sccc2n1CC(=O)OC(C)C,-10.9
4,CC1=N/C(=C\c2ccc([N+](=O)[O-])cc2)C(=O)N1c1cc(Cl)ccc1C,-9.14
5,Cc1sc2nc(COC(=O)c3cccc(OC(F)F)c3)[nH]c(=O)c2c1C,0.0335
6,NS(=O)(=O)c1ccc(NC(=O)c2ccc(CSc3ccccc3)o2)cc1,-13.6
7,Cc1ccc(C(=O)OCC(=O)N(CC(C)C)c2c(N)n(Cc3ccccc3)c(=O)[nH]c2=O)s1,14.7
8,Cc1nc(N)sc1C(=O)N/N=C/c1ccco1,10.7
9,Cc1cc(C(C)(C)C)ccc1OCCOCCN1CCCC1,-44.5
10,CCn1ccnc1CN(C)Cc1c(C(=O)N2C[C@@H](C)O[C@@H](C)C2)nc2ccc(Cl)cn12,11.6
11,COc1ccccc1NC(=O)NC(=O)c1ccccc1,18.5
12,COC(=O)C(CC(C)C)NC(=O)C(N)Cc1ccccc1.Cl (stereo not drawn) (H-Phe-Leu-OMe; configuration not given here),8.83
13,O=C(Cc1ccc(Cl)cc1)NC1CC1,11
14,CC(C)(C)C1CCc2[nH]c3ccccc3c(=O)c2C1 (stereo not shown),-5.82
15,CC(C)CN(C(=O)COC(=O)CCCc1c[nH]c2ccccc12)c1c(N)n(Cc2ccccc2)c(=O)[nH]c1=O,17.2
16,CN1CCCN(C(=O)COc2cccc(C(F)(F)F)c2)CC1,-0.603
17,COc1ccc(CCNS(=O)(=O)c2cc3c4c(c2)CC(=O)N4CCC3)cc1,-34.8
18,CCCCOc1ccc(C(=O)N2CCC(C)CC2)cc1,-9.48
19,COCCn1c(=NC(=O)CN2C(=O)CCC2=O)sc2cc(S(N)(=O)=O)ccc21,-9.48
20,COc1cccc(/C=C/C(=O)OCC(=O)c2c[nH]c3ccccc23)c1OC,9.29
21,CCN(CC)S(=O)(=O)c1cccc(NC(=O)COc2ncnc3sccc23)c1,-31.4
22,Cc1cccc(NC(=O)N2C3CCCC2CC(NC(=O)C(C)(C)C)C3)c1 (stereo not shown),1.47

row,SMILES,"hERG current change (%, negative = inhibition) at 10uM [%]"
1,COCCCNC(=O)Cn1cc(C(C)=O)c2ccccc21,17.7
2,C=C(C)/C=N/NC(=S)Nc1ccc(S(=O)(=O)N2CCOCC2)cc1,-13.4
3,CCN(CCNC(=O)C1CCCN(S(=O)(=O)CC)C1)c1ccccc1 (stereo not shown),-5.46
4,Cn1c(=O)c(=O)n(C)c2cc(S(=O)(=O)Nc3ccc(OC(F)(F)F)cc3)ccc21,1.1
5,CCCCC(=O)NC(=S)Nc1cccc(Cl)c1N1CCCCC1,3.72
6,CCN(CC)C(=O)CSc1nc(N)c2c3c(sc2n1)CC(C)CC3 (stereo not shown),-20.9
7,CSCc1cc(N2CCOCC2)nc(SCc2ccc(Cl)c(Cl)c2)n1,6.78
8,CCCc1nnc(SCC(=O)NC2CCCC2)n1CCOC,7.01
9,Cc1cc(-c2nc(C)c(-c3nnc(SCC(=O)Nc4ccc(Cl)cc4)n3C)s2)no1,2.4
10,CNc1ncnc2sc(-c3ccccc3)cc12,-1.51
11,CCc1cccc2c(C(=O)C(F)(F)F)cn(CC(=O)NCC3CCCO3)c12 (stereo not shown),19.3
12,CC(C)CNS(=O)(=O)c1ccc(NC(=O)Cn2nc(-c3ccc(F)cc3)ccc2=O)cc1,-3.17
13,COc1ccccc1/C=N/n1c(C)nnc1-n1nc(C)cc1C,0.517
14,CCCCCCSc1ncc(C#N)c(N)n1,-4.45
15,CC(=O)N1N=C(c2ccccc2O)CC1c1cccs1 (stereo not shown),-6.13
16,Cc1c(C(=O)N2CCOCC2)sc2ncnc(N3CCc4ccccc4C3)c12,-38.8
17,CCCCOc1ccc(C(=O)NCC(=O)N(C)CC(=O)Nc2ccc(N3CCOCC3)cc2)cc1,-27.4
18,CCOc1ccc(-n2c(-c3ccccc3)c[n+]3c2CCC3)cc1.[Br-],-54
19,O=C(Nc1cccc(NC(=O)c2ccc(Cl)cc2Cl)c1)c1cccnc1,5.77
20,CC(C)OCCCNC(=S)Nc1ccc2nc3n(c(=O)c2c1)CCCCC3,-13.9
21,CSc1ncc(-c2ccccc2)cn1,-11.2

# Source: publication PMC4336329 (PLoS ONE, 2015)
